Data reported in PubChem BioAssay AID624417 (National Center for Advancing Translational Sciences (NCATS), 2012).
The whole screen tested about 410,000 compounds, of which about 6,400 (1.6%) were called active. This list was built around the results that the source calls inconclusive (neither active nor inactive); the mix of calls is not that of the screen. The call rests on the fitted dose curve; in most records, active means well fitted inhibition curve with a large enough effect; inconclusive means small, poorly fitted or top-dose-only effect; inactive means no such curve, though single readings can be large or run the other way. No potency is given beside an inconclusive call; the fits are too rough.

target: Glucagon-like peptide 1 receptor (Homo sapiens) (UniProt P43220); experiment: qHTS of GLP-1 Receptor Inverse Agonists (Inhibition Mode); settings: HEK293 GLP-1R CRE-luciferase, luminescence, 24 h, GLP-1R form is constitutively active; activity change, negative = inhibition: at 38.3 µM (top of the series) unless noted; further: nearly all actives have a fitted effect of over 55% in size
UniProt P43220, sequence (P43220 whole entry, looked up): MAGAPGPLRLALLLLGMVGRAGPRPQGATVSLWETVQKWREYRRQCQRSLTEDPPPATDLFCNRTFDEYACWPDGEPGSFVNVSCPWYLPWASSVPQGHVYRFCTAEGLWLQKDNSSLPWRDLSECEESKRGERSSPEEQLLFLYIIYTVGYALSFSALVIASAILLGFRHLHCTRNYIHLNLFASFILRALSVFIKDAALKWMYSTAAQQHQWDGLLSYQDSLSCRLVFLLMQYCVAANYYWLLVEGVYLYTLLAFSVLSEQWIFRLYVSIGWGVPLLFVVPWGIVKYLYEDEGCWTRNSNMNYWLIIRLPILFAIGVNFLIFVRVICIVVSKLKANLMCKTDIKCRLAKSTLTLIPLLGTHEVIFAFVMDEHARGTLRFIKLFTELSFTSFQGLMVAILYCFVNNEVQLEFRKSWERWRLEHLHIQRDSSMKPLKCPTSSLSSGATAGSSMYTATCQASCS
Procedure, shortened: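 Constitutively active GLP-1R drives a cAMP-responsive luciferase in stably transfected HEK293 cells; test compounds are added after overnight (12 h) attachment and left 24 hr, and signal loss in luminescence marks inhibition.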
On the % scale 0 is the no-effect control and ±100 the full control effect; potency means the concentration at half of the fitted maximal effect; tags describe the fitted curve by direction and shape.

| SMILES | Potency | activity change, negative = inhibition |
| --- | --- | --- |
| O=C(N/N=C/c1cn(-c2cccs2)nc1-c1ccccc1)c1ccccc1Cl | inconclusive [inhibitor, full curve, poor fit] |  |
| CC(C)NC(=O)c1onc(CSc2cccc(F)c2)c1C(=O)O | inconclusive [inhibitor, single point] |  |
| C/C=C/c1ccc2c(c1)O[C@@H](CN(C)C(=O)c1ccc(F)cc1)[C@@H](C)CN([C@H](C)CO)S2(=O)=O |  | inactive: 14.4% |
| Cc1cccc(C(=O)Nc2sc3c(c2C(=O)O)CCCC3)c1 | inconclusive [inhibitor, full curve, poor fit] |  |
| Cc1ccc(NC(=S)N(CCN(C)C)Cc2cc3cc(C)ccc3[nH]c2=O)cc1 | inconclusive [inhibitor, partial curve, poor fit] |  |
| O=C(C1CCN(C2CCN(Cc3ccc4c(c3)CCO4)CC2)CC1)N1CCCC1 | inconclusive [inhibitor, partial curve, poor fit] |  |
| CN(C)c1nc(-c2ccccc2)cc(C(F)(F)F)c1C#N | inconclusive [inhibitor, single point] |  |
| CC(=O)c1cc(CC(=O)N2CCc3c([nH]c4ccccc34)C2c2ccccn2)cs1 (stereo not drawn) | inconclusive [inhibitor, single point] |  |
| CCC(CC)c1nn2c(N)c(/C=C3\C(C)=Nc4ccccc43)c(=O)nc2s1 | inconclusive [inhibitor, single point] |  |
| CCCCOC(=O)Nc1nnc(-c2ccccc2OC)s1 |  | inactive: 3.83% |
| O=C(CN1CCCC1)Nc1ccc(Oc2ccc(NC(=O)CN3CCCC3)cc2)cc1 | active: 1.78 µM |  |
| CCCC(=O)Nc1ccc2c(c1)nc(CN1CCN(C(=O)OCC)CC1)n2C |  | inactive: 4.31% |
| CC1=CC(C)(C)n2c(O)c(N=NC(N)=S)c3cc(C)cc1c32 | active: 2 µM |  |
| O=C1CN(C(=O)c2ccco2)C(c2ccccc2)c2cc(Cl)ccc2N1 (stereo not drawn) | inconclusive [inhibitor, partial curve, poor fit] |  |
| Cc1ccc(NC(=O)CN2C(=O)COc3ccc(S(=O)(=O)N4CCOCC4)cc32)c(Cl)c1 |  | inactive: -7.35% |
| CC(C)(C)c1ccc(S(=O)(=O)N2CCC(c3ccncc3)CC2)cc1 | inconclusive [inhibitor, partial curve, poor fit] |  |
| COc1cccc(-n2cc(C(=O)Nc3ccccc3C(N)=O)c3ccccc3c2=O)c1 |  | inactive: 0.726% |
| Cc1cc(O)c(C)c(O)c1/C=N/NC(=O)c1cccnc1 | inconclusive [inhibitor, partial curve, poor fit] |  |
| COc1ccccc1NC(=O)C(C)OC(=O)c1cc2ccccc2[nH]1 (stereo not drawn) | inconclusive [inhibitor, single point] |  |
| O=C(CSc1nnc(Cc2ccccc2)n1Cc1ccccc1)NCc1ccco1 | inconclusive [inhibitor, partial curve, poor fit] |  |
| CCCn1cnnc1CNC(=O)[C@H]1O[C@@H](n2ccc(N)nc2=O)[C@H](O)[C@@H]1O |  | inactive: 5.63% |
| CCc1ccc(CN2CCC(C(=O)Nc3ccc(Oc4ccccc4)nc3)CC2)o1 | active: 8.91 µM |  |
| CC12CCC(=O)N1c1c(sc3nc(N4CCOCC4)c4c(c13)CCCC4)C(=O)N2 (stereo not drawn) |  | inactive: 131% |

| SMILES | Potency | activity change, negative = inhibition |
| --- | --- | --- |
| CCOC(=O)C1NN=C(C(=O)c2ccccc2)C1c1ccc(Cl)cc1 (stereo not drawn) | inconclusive [inhibitor, partial curve, poor fit] |  |
| Cc1cc(Br)ccc1OCCNCc1ccccc1 | active: 8.91 µM |  |
| CS(=O)(=O)N1CCN(c2ccccc2NC(=O)CSc2ccc(Cl)cc2)CC1 | inconclusive [inhibitor, single point] |  |
| Cc1ccc(C)c(NC(=O)COC(=O)CC2CC3CCC2C3)c1 (stereo not drawn) | inconclusive [inhibitor, partial curve, poor fit] |  |
| CC(=O)N1N=C(c2cccc(Cl)c2)OC1c1cccc([N+](=O)[O-])c1 (stereo not drawn) | inconclusive [inhibitor, partial curve] |  |
| O=C(c1ccccc1)c1ccc(OCCCCN2CCCCC2)cc1 | inconclusive [inhibitor, full curve, poor fit] |  |
| CCCCn1nnnc1C(c1cc2ccccc2o1)N1CCN(c2c(C)cccc2C)CC1 (stereo not drawn) | inconclusive [inhibitor, partial curve, poor fit] |  |
| O=S(=O)(NCc1cccs1)c1ccc(Cl)s1 | inconclusive [inhibitor, single point] |  |
| COc1cc(Br)cc(/C=C/c2ccc3cccc(O)c3n2)c1O | inconclusive [inhibitor, single point] |  |
| [O-]/C(=C(\C(=S)Nc1ccc(SC(F)F)cc1)[n+]1cccc(CO)c1)c1ccc(Cl)s1 | active: 5.01 µM |  |
| CCCCCCCCN1C(=O)[C@H](CC(=O)N2CCCC2)C[C@@]2(C(=O)OCC)CCCC=C12 | inconclusive [inhibitor, partial curve, poor fit] |  |
| CC(=O)Nc1c(C(=O)Nc2ccccc2F)oc2ccccc12 |  | inactive: 8.84% |
| CC(=O)NNC(=S)Nc1cccc(F)c1 |  | inactive: 8.9% |
| CC(=O)Nc1ccc(SCC(=O)NC(=O)c2ccc(Cl)cc2)cc1 |  | inactive: -4.29% |
| O=C(NCCc1ccc(Cl)cc1)c1ccc(CS(=O)Cc2ccc(Cl)cc2)o1 (stereo not drawn) | inconclusive [inhibitor, partial curve, poor fit] |  |
| CC(=O)c1cccc(Nc2ncnc3c2cnn3-c2cccc(Cl)c2)c1 |  | inactive: 13.2% |
| Cc1occc1-c1nnc(SCC(=O)c2ccc(Cl)cc2)n1C |  | inactive: 0.394% |
| CN1CCN(c2cc(N3CCN(C(=O)c4ccco4)CC3)c3c4c(onc24)-c2ccccc2C3=O)CC1 | inconclusive [inhibitor, full curve, poor fit] |  |
| Clc1ccc(COc2cccc(CNCc3ccncc3)c2)cc1 | inconclusive [inhibitor, single point] |  |
| C=C(C)CNC(=S)N/N=C(\C)c1ccc(-n2ccnc2)cc1 | inconclusive [inhibitor, partial curve, poor fit] |  |
| COc1cccc(NC(=O)c2oc3ccc(S(=O)(=O)N4CCOCC4)cc3c2C)c1 | inconclusive [inhibitor, partial curve, poor fit] |  |
| Cc1cc(C)c(-c2csc(NC(=O)C3=NN(c4ccccc4)C(=O)CC3)n2)c(C)c1 | inconclusive [inhibitor, partial curve] |  |
| Nc1cc2[nH]c(=O)c3ccccc3c2cc1Br |  | inactive: 34.6% |

| SMILES | Potency | activity change, negative = inhibition |
| --- | --- | --- |
| COc1ccccc1NS(=O)(=O)c1cc(NC(=O)Nc2ccccc2)ccc1N1CCCCC1 | inconclusive [inhibitor, single point] |  |
| CCn1ccnc1CN(C)Cc1cn(-c2cc(C)ccc2C)nc1-c1ccccc1 | inconclusive [inhibitor, partial curve, poor fit] |  |
| COc1ccc(C)cc1S(=O)(=O)N1CCCC(C(=O)N2CCN(c3ccccc3F)CC2)C1 (stereo not drawn) | inconclusive [inhibitor, partial curve, poor fit] |  |
| Cc1n[nH]c(C)c1CCCCOc1ccccc1 |  | inactive: 9.45% |
| O=[N+]([O-])c1ccc(C2=NN(CCO)C(=Nc3ccc(OC(F)(F)F)cc3)SC2)cc1 | inconclusive [inhibitor, partial curve, poor fit] |  |
| CCN1CCc2nc(SCC(=O)Nc3ccc(OC)cc3)c(C#N)cc2C1 |  | inactive: 18.9% |
| Cc1ccc(N2C(=O)C(CC(=O)Nc3cccc(F)c3)N(CCc3ccccc3F)C2=O)cc1 (stereo not drawn) | inconclusive [inhibitor, single point] |  |
| O=C(Cn1cc2c(n1)CCCC2)N1CCCc2ccccc21 | inconclusive [inhibitor, full curve, poor fit] |  |
| CC1CCCC(C)N1CCCNC(=O)c1csc2c1CCCCC2 (stereo not drawn) | inconclusive [inhibitor, partial curve, poor fit] |  |
| CCCN(C(=O)CCc1nc(-c2ccc(C)cc2)no1)c1ccc(OCC)cc1 | active: 11.2 µM |  |
| O=C(O)CN1C(c2ccccc2O)Nc2ccc(Br)cc2C1c1ccccc1 (stereo not drawn) | inconclusive [inhibitor, single point] |  |
| Cc1nn(-c2ccccc2)c(/N=C/c2ccccc2O)c1-c1ccccc1 | inconclusive [inhibitor, single point] |  |
| COc1cc(C)ccc1OCC(=O)NC1CCCCCC1 | inconclusive [inhibitor, single point] |  |
| CCOC1(/N=C(\C)NS(=O)(=O)c2ccc(Cl)cc2)C(C)=CC(=O)C=C1C |  | inactive: 5.74% |
| COc1ccc(Nc2c(-c3ccc(OC)cc3)nc3cnccn23)cc1 |  | inactive: 13.1% |
| O=C1Nc2ccccc2/C1=C/c1ccccc1Cl | inconclusive [inhibitor, single point] |  |
| COc1cc2ccccc2cc1C(=O)OCC(=O)N1CCOCC1 |  | inactive: 0.203% |
| O=C(O)c1cc(C(=O)O)cc(-c2ccc(/C=c3/sc4nc5ccccc5n4c3=O)o2)c1 | inconclusive [inhibitor, partial curve, poor fit] |  |
| CCc1cccc(NC(=O)CSc2nnc(-c3cc4occc4n3C)n2-c2ccccc2C)c1 | inconclusive [inhibitor, single point] |  |
| Cc1ccccc1/C=C1\CCCc2ccccc2C1=O | inconclusive [inhibitor, single point] |  |
| Cc1ccc(-n2nc(CO)c(C(=O)NCCC(C)C)n2)cc1C |  | inactive: -3.57% |
| COc1cccc(C(NC(C)=O)c2nc(-c3ccc(N(C)C)cc3)cs2)c1 (stereo not drawn) | inconclusive [inhibitor, single point] |  |
